{
  "source": "ChEMBL document CHEMBL4888484",
  "about": "“Replenishing the malaria drug discovery pipeline: Screening and hit evaluation of the MMV Hit Generation Library 1 (HGL1) against asexual blood stage Plasmodium falciparum ,using a nano luciferase reporter read-out” (2022)",
  "note": "Hit rate of the full screen: of about 4,800 compounds, about 410 (8.5%) showed an effect of 50% or more. Some of the results follow.",
  "data": [
    {"test_system": "Plasmodium falciparum", "assay": "Confirmatory screen in NF54 pLDH assay, in single point, at 2uM, 72h", "assay_type": "functional, Erythrocyte", "conditions": "timepoint 72 hour", "units": {"% Inhibition": "%"}, "values": [
      {"smiles": "O=C(CCn1nc2ccccn2c1=O)N1CC(CC(F)F)C1", "% Inhibition": 6},
      {"smiles": "Cc1nc2cccnc2n1-c1cc(C(=O)NCCc2ccccc2)ccc1Cl", "% Inhibition": 6},
      {"smiles": "COc1ccc(N2CCN(C(=O)CN3C(=O)COc4cc(C)ccc43)CC2)cc1", "% Inhibition": 2},
      {"smiles": "O=c1cc(-c2ccccc2F)[nH]c2cc3c(cc12)OCO3", "% Inhibition": 9},
      {"smiles": "Cc1cc2c(cc1C)[C@H](C(=O)Nc1cc(C(N)=O)ccc1Cl)CO2", "% Inhibition": 3},
      {"smiles": "Nc1nc(-c2ccc(Br)cc2)nc(-c2ccc(Br)cc2)n1", "% Inhibition": 2},
      {"smiles": "Cc1cc(-c2csc(CN3C(=O)CNC3=O)n2)cc(C)c1F", "% Inhibition": -24},
      {"smiles": "C[C@@H](CCc1ccccc1)NC(=O)c1cnn2c3c(cnc12)CCCC3", "% Inhibition": -5},
      {"smiles": "C#C[C@H](C)N(C)Cc1c[nH]c(C(=O)OC)c1", "% Inhibition": -7},
      {"smiles": "CC(C)NC(=O)N(CC(=O)N1CCn2cccc2[C@H]1c1cccc(F)c1)C1CC1", "% Inhibition": 12},
      {"smiles": "Cc1nn(C)c(Cl)c1NC(=O)OCc1ccc(F)cc1", "% Inhibition": 13},
      {"smiles": "O=C(NCc1ccncc1)c1cc(C(=O)C2CCCCC2)c[nH]1", "% Inhibition": -10},
      {"smiles": "CC(=O)N(Cc1ccccc1OCc1c(Cl)cccc1Cl)c1ccc2oc(-c3ccccc3)nc2c1", "% Inhibition": -6},
      {"smiles": "COC(=O)c1[nH]c(C)cc1NC(=O)C1=CCCCCC1", "% Inhibition": 9},
      {"smiles": "COc1ccc(CC2C(O)C(Cc3ccc(OC)cc3)C3CCC2N3C)cc1", "note": "(stereo unspecified)", "% Inhibition": 6},
      {"smiles": "Oc1cccc(CN2CCC3(CC2)C[C@H](c2ccccc2)CN(C2CC2)C3)c1", "% Inhibition": 29},
      {"smiles": "CC(=O)NCC(=O)N1CCC(OC(C)(C)C)CC1", "% Inhibition": 11},
      {"smiles": "O=C(c1cnc2ccccc2n1)N1CCCC1", "% Inhibition": -1},
      {"smiles": "Cc1cc(F)ccc1N1CCC[C@H](NC(=O)c2csnc2C)C1=O", "% Inhibition": 5},
      {"smiles": "O=C(O)C1c2ccccc2C(=O)N(C2CCCCC2)C1c1ccc(Cl)cc1", "note": "(stereo unspecified)", "% Inhibition": -3},
      {"smiles": "O=C(Nc1nc2cccc(Cl)c2o1)c1cccc(F)c1", "% Inhibition": 92},
      {"smiles": "COC(=O)C1(CNC(=O)C2CCC2)CCCCC1", "% Inhibition": 10},
      {"smiles": "CCN1CCN(c2nc3ncn(CC(=O)NC(C)C)c(=O)c3s2)CC1", "% Inhibition": -10},
      {"smiles": "Cc1noc(Cn2c(=O)c3ccccc3n(CC(=O)Nc3cccc(Cl)c3C)c2=O)n1", "% Inhibition": 2},
      {"smiles": "COc1ccc(CCNC(=O)Cn2c(=O)ncc3cc(S(=O)(=O)N4CCCC[C@@H]4C)ccc32)cc1OC", "% Inhibition": 9},
      {"smiles": "Cc1nc2ccccc2n1CC1CCCN1C(=O)C1CCc2cccnc21", "note": "(stereo unspecified)", "% Inhibition": 4},
      {"smiles": "COc1ccc(-c2nc(N)s[n+]2-c2ccccc2)cc1", "% Inhibition": 9},
      {"smiles": "COc1ccnc(N2CCc3nn(C(C)C)c(=O)cc3C2)n1", "% Inhibition": 3},
      {"smiles": "CC1(C)CCc2nnc(COc3ccc(C#N)cc3)n2C1", "% Inhibition": 8},
      {"smiles": "Cn1cc(C(=O)NCCOc2ccc3ccccc3n2)cn1", "% Inhibition": -10},
      {"smiles": "O=C(Cn1c(=O)n(Cc2ccco2)c(=O)c2ccccc21)NC1CCCCC1", "% Inhibition": 10},
      {"smiles": "COc1ccc(-c2c(C(F)(F)F)n[nH]c2-c2ccc(OCc3ccccc3F)cc2O)cc1", "% Inhibition": 91},
      {"smiles": "O=C1C[C@H](c2nc3cc(Cl)ccc3o2)CN1c1ccc(F)cc1", "% Inhibition": -13},
      {"smiles": "O=C(CNC(=O)c1ccc(Cl)cc1)Nc1ccc2[nH]c(=O)[nH]c2c1", "% Inhibition": 2},
      {"smiles": "O=C(N[C@H]1C[C@@H]2C[C@H]1CN2C(=O)c1ccc(C(F)(F)F)s1)c1cccnc1", "% Inhibition": 14},
      {"smiles": "O=C(c1ccc(COc2ccc3ccccc3c2)o1)N1CCN(c2ccccn2)CC1", "% Inhibition": 9},
      {"smiles": "COc1cccc(-c2cc3c(N4CCN(c5ccccn5)CC4)nccn3n2)c1", "% Inhibition": 4},
      {"smiles": "CCC(=O)Nc1cc(Br)c(N)c(Br)c1", "% Inhibition": -22},
      {"smiles": "O=C(NC1CCCC1)N1CCC2(CC1)C[C@@H](OCc1ccccc1)CCO2", "% Inhibition": 10},
      {"smiles": "Cc1cccc(C)c1NC(=O)C1CCN(S(=O)(=O)c2c(C)nn(-c3ccccc3)c2C)CC1", "% Inhibition": -3},
      {"smiles": "CC1OC2(OC1C)C(=O)N(C1CCOC1=O)c1ccccc12", "note": "(stereo unspecified)", "% Inhibition": -15},
      {"smiles": "COc1ccccc1[C@H]1CC(O)=Nc2c1ncn2-c1cc(F)cc(F)c1", "% Inhibition": -10},
      {"smiles": "CCS(=O)(=O)CCNC(=O)c1cccc(F)c1F", "% Inhibition": 3},
      {"smiles": "Cc1ccc2sc(C(=O)N3CC(OCC(=O)N(C)C)C3)cc2c1", "% Inhibition": 3},
      {"smiles": "Cn1c(-c2ccccc2)c[n+](CC(=O)c2ccc3c(c2)OCO3)c1N", "% Inhibition": 12},
      {"smiles": "CC1C=CC2C(=O)N(CC(F)(F)F)C(=O)C2C1C(=O)N1CCC(Cc2ccccc2)CC1", "note": "(stereo unspecified)", "% Inhibition": 0},
      {"smiles": "C[C@H](C#N)CN(C)c1nc(C2CC2)nc2scc(-c3ccccc3)c12", "% Inhibition": -3},
      {"smiles": "CC(C)NC(=O)C(=O)Nc1nccs1", "% Inhibition": -19},
      {"smiles": "CC(=O)Nc1cc(NC(=O)c2cccc[n+]2[O-])c(F)cc1F", "% Inhibition": -20},
      {"smiles": "COCCCNC(=O)c1cncc(Br)c1", "% Inhibition": -2},
      {"smiles": "Cn1ccc(NC(=O)C(=O)N2CC[C@H](c3ccco3)C2)n1", "% Inhibition": 5}
    ]}
  ]
}
